# Results from the supplement of paper PMC8728848.
# The list shows a part of the results.
# What was measured:
# Assay in all cases: glycan array binding signal (z-score within array); higher = stronger binding
# Conditions in all cases: glycan notation: IUPAC condensed, linker removed
# [1] = target: GlcNAc(b1-2)Gal(b1-3)GlcNAc
# In short: (§1)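 Glycan array data were curated from 3228 arrays in the Consortium for Functional Glycomics database and kept only where the protein sequence was available. Glycan names were converted to IUPAC-condensed notation, and columns mapping to the same glycan were averaged. The binding signal is a within-array Z-score, averaged across arrays of the same protein sequence at different concentrations or buffers and across linkers. Negative Z-scores can be read as non-binding.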
# [2] = target: GlcNAc(b1-2)Man(a1-3)[GlcNAc(b1-2)Man(a1-6)]Man(b1-4)GlcNAc(b1-4)GlcNAc
# In short: as §1
# [3] = target: GlcNAc(b1-3)Gal
# In short: as §1
# [4] = target: GlcNAc(b1-3)Gal(b1-3)GalNAc
# In short: as §1
# [5] = target: GlcNAc(b1-3)Gal(b1-4)Glc
# In short: as §1
# [6] = target: GlcNAc(b1-3)Gal(b1-4)GlcNAc
# In short: as §1
# [7] = target: GlcNAc(b1-3)Gal(b1-4)GlcNAc(b1-3)Gal(b1-4)GlcNAc
# In short: as §1
# [8] = target: GlcNAc(b1-3)GalNAc
# In short: as §1
# [9] = target: GlcNAc(b1-3)[GlcNAc(b1-4)][GlcNAc(b1-6)]GlcNAc
# In short: as §1
# [10] = target: GlcNAc(b1-3)[GlcNAc(b1-6)]Gal(b1-4)GlcNAc
# In short: as §1
# [11] = target: GlcNAc(b1-3)[GlcNAc(b1-6)]GlcNAc
# In short: as §1
# [12] = target: GlcNAc(b1-4)Gal(b1-4)GlcNAc
# In short: as §1
# [13] = target: GlcNAc(b1-4)GlcNAc(b1-4)GlcNAc
# In short: as §1
# [14] = target: GlcNAc(b1-4)GlcNAc(b1-4)GlcNAc(b1-4)GlcNAc(b1-4)GlcNAc
# In short: as §1
# [15] = target: GlcNAc(b1-4)GlcNAc(b1-4)GlcNAc(b1-4)GlcNAc(b1-4)GlcNAc(b1-4)GlcNAc
# In short: as §1
# [16] = target: GlcNAc(b1-4)[GlcNAc(b1-6)]GalNAc
# In short: as §1
# [17] = target: GlcNAc(b1-6)Gal(b1-4)GlcNAc
# In short: as §1
# [18] = target: GlcNAc(b1-6)GalNAc
# In short: as §1
# [19] = target: Kdn(a2-3)Gal(b1-3)GlcNAc
# In short: as §1
# [20] = target: Kdn(a2-3)Gal(b1-4)GlcNAc
# In short: as §1
# [21] = target: Man(a1-2)Man(a1-2)Man(a1-3)Man
# In short: as §1
# [22] = target: Man(a1-2)Man(a1-2)Man(a1-3)[Man(a1-2)Man(a1-3)[Man(a1-2)Man(a1-6)]Man(a1-6)]Man(b1-4)GlcNAc(b1-4)GlcNAc
# In short: as §1
# [23] = target: Man(a1-2)Man(a1-2)Man(a1-3)[Man(a1-2)Man(a1-6)[Man(a1-3)]Man(a1-6)]Man(b1-4)GlcNAc(b1-4)GlcNAc
# In short: as §1
# [24] = target: Man(a1-2)Man(a1-2)Man(a1-6)[Man(a1-3)]Man
# In short: as §1
# [25] = target: Man(a1-2)Man(a1-3)Man
# In short: as §1
# [26] = target: Man(a1-2)Man(a1-3)[Man(a1-2)Man(a1-6)]Man
# In short: as §1
# [27] = target: Man(a1-2)Man(a1-3)[Man(a1-3)[Man(a1-6)]Man(a1-6)]Man(b1-4)GlcNAc(b1-4)GlcNAc
# In short: as §1
# [28] = target: Man(a1-2)Man(a1-3)[Man(a1-6)]Man(a1-6)[Man(a1-2)Man(a1-3)]Man(b1-4)GlcNAc(b1-4)GlcNAc
# In short: as §1
# [29] = target: Man(a1-3)[Man(a1-6)]Man
# In short: as §1
# [30] = target: Man(a1-3)[Man(a1-6)]Man(a1-6)[Man(a1-3)]Man(b1-4)GlcNAc(b1-4)GlcNAc
# In short: as §1
# [31] = target: Man(a1-3)[Man(a1-6)]Man(b1-4)GlcNAc(b1-4)GlcNAc
# In short: as §1
# [32] = target: Man(b1-4)GlcNAc
# In short: as §1
# [33] = target: Neu5Ac(a2-3)Gal
# In short: as §1
# [34] = target: Neu5Ac(a2-3)Gal(b1-3)GalNAc
# In short: as §1
# [35] = target: Neu5Ac(a2-3)Gal(b1-3)GalNAc(b1-3)Gal(a1-4)Gal(b1-4)Glc
# In short: as §1
# [36] = target: Neu5Ac(a2-3)Gal(b1-3)GalNAc(b1-4)[Neu5Ac(a2-3)]Gal(b1-4)Glc
# In short: as §1
# [37] = target: Neu5Ac(a2-3)Gal(b1-3)GalNAc6S
# In short: as §1
# [38] = target: Neu5Ac(a2-3)Gal(b1-3)GlcNAc
# In short: as §1
# [39] = target: Neu5Ac(a2-3)Gal(b1-3)GlcNAc(b1-3)Gal(b1-4)GlcNAc
# In short: as §1
# [40] = target: Neu5Ac(a2-3)Gal(b1-3)GlcNAc6S
# In short: as §1
# [41] = target: Neu5Ac(a2-3)Gal(b1-3)[Fuc(a1-4)]GlcNAc
# In short: as §1
# [42] = target: Neu5Ac(a2-3)Gal(b1-3)[Fuc(a1-4)]GlcNAc(b1-3)Gal(b1-4)[Fuc(a1-3)]GlcNAc
# In short: as §1
# [43] = target: Neu5Ac(a2-3)Gal(b1-3)[Neu5Ac(a2-3)Gal(b1-4)]GlcNAc
# In short: as §1
# [44] = target: Neu5Ac(a2-3)Gal(b1-3)[Neu5Ac(a2-6)]GalNAc
# In short: as §1
# [45] = target: Neu5Ac(a2-3)Gal(b1-4)Glc
# In short: as §1
binder,measurement,setting,value
"Crocus Lectin (Crocus vernus), Q9FVA1 (protein) MAKSLVLSSLLLALLLAAPLASLADNNVLLTGDVLHTDNQLSFESAAFVMQGDCNLVLYNEAGGFQSNTHGRGVGCTLRLNNFGQLEIHSANSNTPVWVSLRNGIPVRGDYAAVLGPDQHVTIYGPAIWSTPAPNRHERGATVSNIPRVRNVLFSSQVMSDNAQLATRDYSLVMRDDCNLALTKGSKTNIVWESGTSGRGQHCFMRLGHTGLIEISDDRLNTVWRSNTVGQEGDYVLILQINGQAVVYGPAVWSTASPARGGASAAL",glycan array binding signal (z-score),[1],-0.176
same,glycan array binding signal (z-score),[2],0.975
same,glycan array binding signal (z-score),[3],-0.192
same,glycan array binding signal (z-score),[4],-0.06
same,glycan array binding signal (z-score),[5],-0.178
same,glycan array binding signal (z-score),[6],-0.146
same,glycan array binding signal (z-score),[7],-0.197
same,glycan array binding signal (z-score),[8],-0.194
same,glycan array binding signal (z-score),[9],-0.174
same,glycan array binding signal (z-score),[10],-0.163
same,glycan array binding signal (z-score),[11],-0.202
same,glycan array binding signal (z-score),[12],-0.173
same,glycan array binding signal (z-score),[13],-0.156
same,glycan array binding signal (z-score),[14],-0.143
same,glycan array binding signal (z-score),[15],-0.177
same,glycan array binding signal (z-score),[16],-0.187
same,glycan array binding signal (z-score),[17],-0.191
same,glycan array binding signal (z-score),[18],-0.175
same,glycan array binding signal (z-score),[19],-0.174
same,glycan array binding signal (z-score),[20],-0.161
same,glycan array binding signal (z-score),[21],-0.167
same,glycan array binding signal (z-score),[22],0.3
same,glycan array binding signal (z-score),[23],0.047
same,glycan array binding signal (z-score),[24],-0.192
same,glycan array binding signal (z-score),[25],-0.163
same,glycan array binding signal (z-score),[26],-0.163
same,glycan array binding signal (z-score),[27],3.76
same,glycan array binding signal (z-score),[28],1.89
same,glycan array binding signal (z-score),[29],7.87
same,glycan array binding signal (z-score),[30],7.04
same,glycan array binding signal (z-score),[31],6.62
same,glycan array binding signal (z-score),[32],-0.199
same,glycan array binding signal (z-score),[33],-0.184
same,glycan array binding signal (z-score),[34],-0.19
same,glycan array binding signal (z-score),[35],-0.19
same,glycan array binding signal (z-score),[36],-0.154
same,glycan array binding signal (z-score),[37],-0.192
same,glycan array binding signal (z-score),[38],-0.194
same,glycan array binding signal (z-score),[39],-0.186
same,glycan array binding signal (z-score),[40],-0.182
same,glycan array binding signal (z-score),[41],-0.169
same,glycan array binding signal (z-score),[42],-0.167
same,glycan array binding signal (z-score),[43],-0.169
same,glycan array binding signal (z-score),[44],-0.169
same,glycan array binding signal (z-score),[45],-0.188
